# According to the supplement of paper PMC12217912:
# This is one part of the list. The full chains were built here from the parent and the listed change. Inactive controls read about 0.05.
# B1: TEV protease; numbered along this chain (parent)
# chain: MGESLFKGPRDYNPISSSICHLTNESDGHTTSLYGIGFGPFIITNKHLFRRNNGTLVVQSLHGVFKVKDTTTLQQHLVDGRDMIIIRMPKDFPPFPQKLKFREPQREERICLVTTNFQTKSMSSMVSDTSCTFPSGDGIFWKHWIQTKDGQCGSPLVSTRDGFIVGIHSASNFTNTNNYFTSVPKNFMELLTNQEAQQWVSGWRLNADSVLWGGHKVFMVKPEEPFQPVKEATQL
# Variants of: B1
# Experiment: raw area under fraction-flipped curve 0-4 h after induction (AUC4h, not background-subtracted), DNA-recorder readout of cleavage of the substrate (dimensionless); higher = more cleavage of the substrate by the protease variant
# Settings: temperature: 34 °C; time window: 0-4 h after rhamnose induction
# Description: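 In vivo DNA recorder in E. coli TOP10(DE3) ΔrhaA at 34 °C. Each TEVp single-site mutant (parent TEVp 0) is paired with a single-site variant of the 7-mer TEVs (canonical ENLYFQ|S). The substrate sits between flexible linkers in a Bxb1-sfGFP-TEVs-SsrA fusion, so cleavage stabilises Bxb1 and speeds flipping of a recombination array, read by NGS. The value is the raw area under the fraction-flipped curve over 0-4 h after rhamnose induction (AUC4h), with ≥20 reads per time point. It is not background-subtracted; inactive controls average about 0.047.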
# 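Further: Bxb1 expression induced with 0.2% (w/v) L-rhamnose at OD600 near 0.5, cultures sampled hourly, flipped fraction per protease–substrate barcode pair counted by paired-end Illumina sequencing.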
Variant,area with substrate ENLYFAS,area with substrate ENLYFDS,area with substrate ENLYFES,area with substrate ENLYFIS,area with substrate ENLYFKS,area with substrate ENLYFMS,area with substrate ENLYFNS,area with substrate ENLYFPS,area with substrate ENLYFRS,area with substrate ENLYFCS,area with substrate ENLYFFS,area with substrate ENLYFGS,area with substrate ENLYFLS,area with substrate ENLYFTS,area with substrate ENLYFWS,area with substrate ENLYFYS,area with substrate ENLYFSS,area with substrate ENLYFHS,area with substrate ENLYFVS
T115D,0.0588,0.0621,0.0613,0.0516,0.064,0.0737,0.0995,0.0586,0.0676,,,,,,,,,,
W203K,0.0521,0.0782,0.0541,0.0601,0.0715,0.0584,0.0387,0.0564,,0.0581,0.0637,0.0488,0.0588,0.0628,0.0502,0.0622,,,
W203L,0.0656,0.0848,0.0592,,0.0564,0.0619,0.0602,,0.0519,,0.0456,,0.0767,0.0536,,,0.0655,,
D91V,0.0543,0.0547,0.0587,0.0494,0.0575,0.0599,0.0691,0.0611,0.0621,,0.0606,,,,,0.0572,,0.0504,0.0613
S17Y,0.0566,0.0472,,0.0542,0.0804,0.0708,0.063,0.0539,0.054,0.0548,0.0628,0.0401,,0.0571,0.0578,0.0576,0.049,0.0547,
F6K,0.0626,,0.0024,0.0604,,,0.0735,0.0616,0.0662,,0.0673,,,0.0694,0.0379,,0.0576,,0.0688
F101T,0.0498,0.029,0.0525,0.0491,0.0526,,0.0507,0.0459,,,0.0758,,,,,,0.0475,,
G35C,0.0479,,,0.0451,0.0634,,0.047,0.0805,,,,0.0496,,0.0378,0.0378,,,,0.0584
I43M,0.0739,,0.0573,0.0572,,0.0594,0.0817,0.0588,,0.0583,0.075,0.0581,0.0601,0.0703,0.0458,,0.059,,
K90Q,0.0693,,,0.007,,0.0696,0.0715,0.0496,,0.0675,0.0676,,0.062,0.0563,,,0.0676,,0.0722
K221A,0.061,0.0577,0.0617,,0.0471,,0.0681,0.0612,,0.0643,,,,,,0.0649,0.0483,0.059,
Q227Y,0.041,0.0533,0.0658,0.0509,0.0581,0.0589,0.0589,0.0657,0.098,0.0487,,,0.0608,0.0564,,,0.0505,0.0146,0.0624
F41S,0.0545,0.0582,0.063,0.0475,0.0606,,0.0516,0.0528,0.0496,0.0415,0.0656,0.0424,0.0642,0.0639,0.073,0.0494,,0.0536,
G136S,0.0599,,0.0685,0.0588,0.0355,0.0592,0.0702,,0.0621,,0.0706,,,,0.0501,,,0.0602,
V78M,0.0492,0.0454,0.0602,0.0454,0.0459,0.0378,0.0643,0.0512,0.0541,0.066,0.0559,0.0584,,,0.0313,0.0448,0.0584,0.0572,0.0533
S171P,0.0503,,0.0562,0.056,,0.0628,0.057,0.0624,0.0596,0.0371,0.0566,0.0675,,0.0559,0.0495,0.0764,0.056,0.05,0.075
H143T,0.0497,0.0587,0.0579,,0.0664,0.0534,,0.0568,0.0507,0.0722,0.0569,,,,0.0611,,,0.0573,
H143M,0.0587,0.0559,,0.051,0.0716,0.0686,0.0513,,0.0665,,0.0585,0.054,0.0521,0.0499,0.0879,,,,0.0567
M188I,0.0312,,,0.0491,,0.0344,,0.0606,0.0562,0.0481,0.0611,,,0.0388,0.0493,0.0259,,0.0485,
T132W,0.0538,,0.0614,0.0559,0.0453,0.0525,,0.0639,,0.0509,0.0764,,0.0594,0.0571,0.0481,0.0507,,0.0578,
V57A,0.0544,,0.069,0.041,0.0504,0.0668,,0.0498,0.051,0.057,0.0684,0.0826,,0.0553,0.0639,0.0388,0.048,0.0501,0.062
F187L,0.0603,,0.0422,0.0639,0.0697,0.0608,0.0548,0.059,0.0633,0.0523,,0.0553,0.044,0.0543,0.0523,,,0.0538,
F187W,0.0388,0.0521,0.0729,0.0431,0.0515,0.0604,0.0605,,0.0558,0.0539,0.0668,0.0589,0.0566,0.0675,0.0547,0.0555,0.0525,0.042,
F95T,0.0452,0.0444,0.0541,0.0295,,0.0481,,0.0256,,0.0678,0.0394,,,,,0.0155,0.0484,,
V183S,0.0533,,0.0729,,0.0543,0.0561,0.0584,0.05,,0.048,0.0847,,,0.0557,0.0596,,0.0753,0.0596,
N178V,0.0524,0.0394,,,,,,0.069,0.0576,,,,0.0577,,0.0606,,0.0199,,
K100M,0.0613,,,,0.0678,,,0.0544,,,,0.0462,,0.0314,0.0658,0.0503,,,
R50Q,0.0459,0.0626,0.0725,0.0582,,0.0915,0.0655,0.0571,,,0.065,0.0689,,0.0636,0.0577,,0.0715,,0.0572
